According to ChEMBL document CHEMBL4888484, “Replenishing the malaria drug discovery pipeline: Screening and hit evaluation of the MMV Hit Generation Library 1 (HGL1) against asexual blood stage Plasmodium falciparum ,using a nano luciferase reporter read-out” (2022):
The whole screen tested about 150,000 compounds, of which about 540 (0.36%) showed an effect of 50% or more. This is one part of the list.

The compounds below were run on Plasmodium falciparum (assay: Primary screen in NF54 nanoGlo assay, in single point, at 2uM, 72h; a lower Z score goes with more inhibition). Conditions: timepoint 72 hour.
Assay type: functional, Erythrocyte
With `Cc1ccc(C(=O)NCc2cccnc2N2CCOCC2)c(O)c1` the “% Inhibition” value was -4% and the Z score was 0.86.
In the case of `CC(=O)c1c(C(F)(F)C(F)(F)F)n[nH]c1C`, the “% Inhibition” value was -4% and the Z score was 0.56.
For `CCC(=O)N(CCN1CCOCC1)CC(=O)N1N=C(c2cccn2C)C[C@H]1c1ccccc1`, the “% Inhibition” value was -10% and the Z score was 1.72.
For `COC(=O)C1CCN(Cc2cc(Cl)cc3c2OCC3)CC1`, the “% Inhibition” value was 31% and the Z score was -3.5.
In the case of `Cc1csc([C@H](C)NS(=O)(=O)N2CCCC2)n1`, the “% Inhibition” value was -2% and the Z score was 0.35.
In the case of `c1cn(Cc2csc([C@@H]3CCCO3)n2)nn1`, the “% Inhibition” value was 0% and the Z score was 0.03.
With `C[C@@]12CNC[C@]1(C)CN(C(=O)Cc1c(Cl)cccc1Cl)C2` the “% Inhibition” value was -5% and the Z score was 0.76.
For `N#CCCCS(=O)(=O)Cc1csc(C2CC2)n1`, the “% Inhibition” value was 7% and the Z score was -0.72.
`O=C(Nc1nccs1)c1cc2c(s1)CCCCCC2` was tested, and the “% Inhibition” value was -12% and the Z score was 1.06.
For `COCc1ccc(C(=O)Nc2cccnc2-n2cc(Br)cn2)o1`, the “% Inhibition” value was 1% and the Z score was -0.11.
`O=C(NCc1ccc(-c2ncon2)cc1)[C@@H]1CCC[C@H](O)C1` was tested, and the “% Inhibition” value was -2% and the Z score was 0.44.
`Cc1noc(C)c1CCC(=O)N1C[C@@H]2CC[C@H]1CN(c1cnccn1)C2` was tested, and the “% Inhibition” value was -1% and the Z score was 0.11.
`CCC(C)NS(=O)(=O)c1cc(NC(=O)C(C)CC)ccc1Oc1c(C)c(C(=O)O)nn1CC` (centres undefined) was tested, and the “% Inhibition” value was -11% and the Z score was 1.73.
With `CC1CCCN(CC(C)NC(=O)c2cc3n(n2)CCOC3)C1` (centres undefined) the “% Inhibition” value was -3% and the Z score was 0.45.
With `COc1ccc(C[C@H](C)CN(C)C(=O)c2ccc(C#N)cn2)cc1` the “% Inhibition” value was -13% and the Z score was 1.28.
In the case of `C#C[C@@H](NC(=O)NCC(=O)N1CCCC1)C(C)C`, the “% Inhibition” value was -6% and the Z score was 0.57.
With `CN(C)Cc1cccc(CNc2ncncc2C(=O)O)c1` the “% Inhibition” value was -14% and the Z score was 1.78.
For `COc1ccc(-n2c(CN3CCN(C)CC3)n[nH]c2=O)c(C)c1`, the “% Inhibition” value was 3% and the Z score was -0.61.
For `CCN1CCN(S(=O)(=O)c2cccc(NC(=O)c3ccc(C)s3)c2)CC1`, the “% Inhibition” value was -3% and the Z score was 0.66.
For `O=C(NCCc1ccc(C2CCCCC2)cc1)N1CCn2ncnc2C1`, the “% Inhibition” value was 7% and the Z score was -1.09.
For `Cc1nc(C)c(CC(=O)N2CCN(c3ccc(F)cc3)CC2)s1`, the “% Inhibition” value was 1% and the Z score was -0.22.
With `COCCCn1ccc(NCc2nc(C)cs2)n1` the “% Inhibition” value was 0% and the Z score was -0.02.
With `CCOC(=O)c1cnc2nc(C)ccc2c1Nc1ccc(F)cc1` the “% Inhibition” value was -4% and the Z score was 0.64.
For `O[C@@H]1CCN(Cc2nc(C3(O)CCN(C4COC4)CC3)cs2)C1`, the “% Inhibition” value was -3% and the Z score was 0.33.
For `N#CCCN(CC1CC1)S(=O)(=O)C[C@H]1CCCCO1`, the “% Inhibition” value was -6% and the Z score was 1.01.
With `CCCc1nc(C)cc(N(C)Cc2ccnc(C)c2)n1` the “% Inhibition” value was -3% and the Z score was 0.3.
With `Cc1ccc(-c2cc(C(=O)NCC[C@H](C)N3CCOCC3)n[nH]2)s1` the “% Inhibition” value was -11% and the Z score was 2.07.
In the case of `CC1CC(C)(C)CC(CO)(NC(=O)Cc2cccnc2)C1` (centres undefined), the “% Inhibition” value was -1% and the Z score was 0.06.
In the case of `COC[C@@H]1Nc2ncnc(Nc3cccc(Br)c3)c2NC1=O`, the “% Inhibition” value was -2% and the Z score was 0.33.
`Cn1cncc1C(=O)NCCN1CC=C(C(C)(C)C)CC1` was tested, and the “% Inhibition” value was 1% and the Z score was -0.2.
`CC(C)(C)C(=O)Nc1ccncc1C(=O)N1CCC[C@H](C(=O)Nc2ccc(Cl)cn2)C1` was tested, and the “% Inhibition” value was 5% and the Z score was -0.75.
`CCS(=O)(=O)N[C@@H](C)c1cccc(C)n1` was tested, and the “% Inhibition” value was 8% and the Z score was -1.03.
With `O=C1c2ccccc2-c2c(-c3ccccc3)sc(=O)n21` the “% Inhibition” value was -5% and the Z score was 0.64.
With `O=C(O)[C@H](Cc1ccccc1)N(C(=O)c1ccncc1)C1CC1` the “% Inhibition” value was 37% and the Z score was -5.
`COc1cc(CNn2cnnc2)cc(Cl)c1OCc1ccccc1` was tested, and the “% Inhibition” value was -17% and the Z score was 1.99.
For `COC(=O)[C@H]1CCCN1C(=O)Nc1cccc(Oc2c(F)c(F)c(F)c(F)c2F)c1`, the “% Inhibition” value was -7% and the Z score was 0.72.
For `C[C@@H](c1ccccc1)N(C)C(=O)[C@H]1CC[C@H](C(=O)O)CC1`, the “% Inhibition” value was 9% and the Z score was -1.18.
`O=C(NCC(F)(F)F)N1CCC[C@H](O)C1` was tested, and the “% Inhibition” value was -10% and the Z score was 1.2.
In the case of `CC(C)n1cncc1CN1CCN(c2ncccn2)CC1`, the “% Inhibition” value was 1% and the Z score was -0.15.
For `CC1Cc2cc(S(=O)(=O)N3CC(O)Cc4ccccc43)ccc2O1` (centres undefined), the “% Inhibition” value was -4% and the Z score was 0.8.
With `Cc1cc(NC(=O)CCc2cc3n(n2)CCNC3)cc2sc(N)nc12` the “% Inhibition” value was -6% and the Z score was 0.87.
`CC(C)n1nc(-c2ccncc2)nc1-c1ccncc1` was tested, and the “% Inhibition” value was -10% and the Z score was 1.33.
For `CCn1ccnc1CN(C)c1cc([C@H]2C[C@H](N)C2)nc(C2CC2)n1`, the “% Inhibition” value was -4% and the Z score was 0.74.
For `Cc1ccc(-c2nc(C(=O)NC(C)(CO)CO)cs2)n1C`, the “% Inhibition” value was -5% and the Z score was 0.55.
For `CCN(Cc1nccn1C)C(=O)c1cc(-c2cncnc2)nc2c(C)c(C)ccc12`, the “% Inhibition” value was 20% and the Z score was -2.51.
`O=C(NCc1ccc2c(c1)OCO2)c1nnc(Cc2ccccc2Cl)o1` was tested, and the “% Inhibition” value was -7% and the Z score was 1.13.
In the case of `CCn1c(-c2cc(NC(=O)c3ccncc3)[nH]n2)cc2ccc(OC)cc21`, the “% Inhibition” value was 34% and the Z score was -3.83.
`NC(=O)c1ccc(CC(=O)N2CCCCC23CCCCCC3)cn1` was tested, and the “% Inhibition” value was -7% and the Z score was 0.7.
For `Cn1c(CN2CCC[C@@](CO)(CCc3ccccc3)C2)nc2ccccc21`, the “% Inhibition” value was -4% and the Z score was 0.61.
`Cc1occc1CNC(=O)NCC1CN2CCCC2CO1` (centres undefined) was tested, and the “% Inhibition” value was 0% and the Z score was 0.05.
With `CO[C@H]1CC[C@@]2(OC)CCN(C(=O)CCn3ccc(=O)[nH]c3=O)[C@H]2C1` the “% Inhibition” value was 0% and the Z score was 0.03.
For `CC(C)c1ccc(C#N)c(N2CC[C@H](N3CCN(C)CC3)[C@H](CCCO)C2)n1`, the “% Inhibition” value was -1% and the Z score was 0.13.
With `O=C(N[C@H]1CCS(=O)(=O)C1)c1cc(Cc2ccccc2)ccc1O` the “% Inhibition” value was -1% and the Z score was 0.21.
For `CCn1nc(CCOC)nc1[C@H](C)Oc1ccc(F)cc1F`, the “% Inhibition” value was 9% and the Z score was -1.3.
`CC(C)(C)c1nc(Cn2cnc3ncc(Br)cc32)no1` was tested, and the “% Inhibition” value was 32% and the Z score was -4.38.
For `O=C(O)CCCN1Cc2cc(Cl)ccc2C[C@H]1c1ccccc1`, the “% Inhibition” value was -3% and the Z score was 0.37.
With `CCCn1nnnc1Cn1cc(S(=O)(=O)N(Cc2ccccc2)Cc2ccccc2)ccc1=O` the “% Inhibition” value was -4% and the Z score was 0.75.
For `CCc1nn(C)cc1N[C@@H](C)c1ccc(F)c(O)c1`, the “% Inhibition” value was -7% and the Z score was 1.4.
`Cc1ccncc1NCc1c[nH]nc1C(C)(C)C` was tested, and the “% Inhibition” value was 27% and the Z score was -3.59.
In the case of `Cc1nn([C@H]2CCCCC2(C)C)c(=O)c2nc(N)sc12`, the “% Inhibition” value was 3% and the Z score was -0.4.
In the case of `Cc1nn(C2CCCC2)c2nc(-c3cccs3)cc(C(=O)O)c12`, the “% Inhibition” value was -43% and the Z score was 5.01.
With `CN1C[C@@H](Nc2nc(C3CC3)no2)CCC1=O` the “% Inhibition” value was -11% and the Z score was 1.08.
`COC[C@@H]1CCCN1C(=O)c1ccc2cccc(Cl)c2n1` was tested, and the “% Inhibition” value was -10% and the Z score was 1.18.
In the case of `CCOC(=O)c1ccc(NC(=O)Cn2nc(COc3ccc(Cl)cc3Cl)oc2=S)cc1`, the “% Inhibition” value was -30% and the Z score was 3.52.
For `O=C(C[C@H]1CCS(=O)(=O)C1)NCc1ccc2nsnc2c1`, the “% Inhibition” value was 0% and the Z score was -0.02.
`CC[C@H](C)[C@@H]1NC(=O)N(c2ccccc2F)C1=O` was tested, and the “% Inhibition” value was -5% and the Z score was 0.9.
For `Cc1ccc(CN2CCN(C(=O)c3ccccc3N(C)C)CC2=O)cc1C`, the “% Inhibition” value was -2% and the Z score was 0.28.
`C1=CCC2CN(c3cnccn3)CC2C1` (centres undefined) was tested, and the “% Inhibition” value was -8% and the Z score was 1.03.
With `Cn1nc(-c2ccccn2)cc1NC(=O)N1C[C@@H]2CC[C@H](C1)C(=O)N2` the “% Inhibition” value was -5% and the Z score was 0.89.
For `CCCCS(=O)(=O)N1CCNC(=O)C1`, the “% Inhibition” value was -1% and the Z score was 0.08.
In the case of `COCCN1C[C@@H](c2nc(-c3ccc(OC)c(F)c3)c[nH]2)CC1=O`, the “% Inhibition” value was -17% and the Z score was 2.22.
For `Cc1cc(C(=O)N2CC(n3nccn3)C2)c(C)o1`, the “% Inhibition” value was 8% and the Z score was -1.13.
In the case of `COc1cccc(CN2CCc3c(cc(C(=O)Nc4ccc(F)cc4C)n3C)C2)c1`, the “% Inhibition” value was -2% and the Z score was 0.22.
`CCc1ccc(N2C(=O)N(C(=O)c3ccco3)C3CC2(C)Oc2ccccc23)cc1` (centres undefined) was tested, and the “% Inhibition” value was -5% and the Z score was 0.58.
`CCC(C)(C(=O)Nc1cc(OC)cc(OC)c1)N(CC1CCCN2CCCCC12)C(C)=O` (centres undefined) was tested, and the “% Inhibition” value was -34% and the Z score was 3.98.
In the case of `Cc1ccccc1NC(=O)N1CCC(n2cnc3ccc(Cl)cc3c2=O)CC1`, the “% Inhibition” value was -6% and the Z score was 0.67.
In the case of `COc1cc(C)ccc1OCc1nc(C(=O)N[C@H]2CCCCNC2=O)co1`, the “% Inhibition” value was -3% and the Z score was 0.5.
For `O=C(Cn1ccc2ccccc2c1=O)N1CCCC[C@H]1c1ncon1`, the “% Inhibition” value was -13% and the Z score was 1.68.
`Cc1cc2c(cc1C)[C@@H](NC1CC1)CCO2` was tested, and the “% Inhibition” value was -1% and the Z score was 0.11.
In the case of `Cc1c(C(=O)N[C@H]2CCCNC2=O)oc2ccccc12`, the “% Inhibition” value was -12% and the Z score was 2.27.
`COc1cccc(CN2CC3(CCN(C(=O)c4ccn(C)n4)CC3)CC2=O)c1` was tested, and the “% Inhibition” value was 5% and the Z score was -0.64.
In the case of `CC1CCN(C(=O)c2n[nH]c3c2CN(C(=O)c2ccco2)CC3)CC1`, the “% Inhibition” value was -3% and the Z score was 0.53.
In the case of `CC(=O)NCCn1c(=O)n(Cc2cccc(C)c2)c2cccnc21`, the “% Inhibition” value was -2% and the Z score was 0.28.
In the case of `CCOC[C@H]1CCN(C(=O)CN2C(=O)Cc3ccccc32)C1`, the “% Inhibition” value was 1% and the Z score was -0.14.
`c1ccc2cc(NC3CCCC3)ccc2c1` was tested, and the “% Inhibition” value was -2% and the Z score was 0.21.
`CC(C)OC1CC(NC(=O)CCn2cccn2)C1(C)C` (centres undefined) was tested, and the “% Inhibition” value was -3% and the Z score was 0.44.
With `CCC1(CC)CN(C(=O)c2ncn(C)n2)c2ccccc21` the “% Inhibition” value was -3% and the Z score was 0.36.
